In a collection of fitness landscapes (doi:10.1016/j.celrep.2020.107928):
Whole data set: some 81,000 sequences, median “one-hybrid fitness for binding NBS DNA” near -0.1, cut for the highest 2% near 0.36. The list shows a part of the results.

B1: Caulobacter ParB omega fusion; a variant is named by its letters at X, in order, B8GW30 (parent)
chain: MESVVVGEPGMSEGRRGLGRGLSALLGEVDAAPAQAPGEQLGGSREAPIEILQRNPDQPRRTFREEDLEDLSNSIREKGVLQPILVRPSPDTAGEYQIVAGERAWRAAQRAGLKTVPIMVRELDDLAVLEIGIIENVQRADLNVLEEALSYKVLMEKFERTQENIAQTIGKSXSHVANXMRLLXLPDEVQSYLVSGELTAXHARAIAAAADPVALAKQIIEGGLSVRETEALARKAPNLSAGKSKGGRPPRVKDTDTQALESDLSSVLGLDVSIDHRGSTGTLTITYATLEQLDDLCNRLTRGI

Variants of: B1
Assay: one-hybrid fitness for binding NBS DNA (the Noc-binding site; scaled: cognate 1, non-cognate 0); higher = stronger binding
Conditions: with NBS DNA site
Outline: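 Selection: bacterial one-hybrid in E. coli USO, HIS3 reporter with the site 19 bp from the promoter, 48 hours at 37°C on M9-minus-histidine plus 0.1 mM IPTG and 5 mM 3-AT. Libraries were Caulobacter ParB with four randomised specificity codons, sequenced on Illumina before and after selection. Fitness is the rescaled log change in variant-to-wild-type read ratio, anchored to the cognate and non-cognate sites.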

Row | Variant | one-hybrid fitness for binding NBS DNA
1 | EAYQ | ≤ 0.2
2 | SYNM | ≤ 0.2
3 | DLTA | ≤ 0.2
4 | PYHG | ≤ 0.2
5 | YYKN | ≤ 0.2
6 | DSAG | ≤ 0.2
7 | QSAG | ≤ 0.2
8 | VFTT | ≤ 0.2
9 | WVSS | ≤ 0.2
10 | AMVN | ≤ 0.2
11 | SEAL | ≤ 0.2
12 | GHWG | ≤ 0.2
13 | RCRH | 0.46
14 | RCDG | ≤ 0.2
15 | SPSE | ≤ 0.2
16 | YEVT | ≤ 0.2
17 | FPQR | ≤ 0.2
18 | QMDC | ≤ 0.2
19 | TRTN | ≤ 0.2
20 | DTEV | ≤ 0.2
21 | KLWA | ≤ 0.2
22 | HYYT | ≤ 0.2
23 | SSVW | ≤ 0.2
24 | GRTM | ≤ 0.2

Row | Variant | one-hybrid fitness for binding NBS DNA
25 | WIGS | ≤ 0.2
26 | QGSG | ≤ 0.2
27 | NTEV | ≤ 0.2
28 | NVHS | ≤ 0.2
29 | QAVM | ≤ 0.2
30 | TGSW | ≤ 0.2
31 | SVVW | ≤ 0.2
32 | QSCG | ≤ 0.2
33 | IGSC | ≤ 0.2
34 | RFEL | ≤ 0.2
35 | QSAT | 0.395
36 | QNVR | ≤ 0.2
37 | YRQQ | ≤ 0.2
38 | LMGG | ≤ 0.2
39 | TAYS | ≤ 0.2
40 | YLYN | ≤ 0.2
41 | EIFC | ≤ 0.2
42 | SPHR | ≤ 0.2
43 | RYIE | ≤ 0.2
44 | YVTC | ≤ 0.2
45 | LWTC | ≤ 0.2
46 | PYRL | ≤ 0.2
47 | QMRF | 0.303
48 | DSFG | ≤ 0.2

Row | Variant | one-hybrid fitness for binding NBS DNA
49 | EVAS | ≤ 0.2
50 | NDIW | ≤ 0.2
51 | SYWW | ≤ 0.2
52 | NIKP | ≤ 0.2
53 | MLAM | ≤ 0.2
54 | IMTS | ≤ 0.2
55 | VFHV | ≤ 0.2
56 | CRYY | ≤ 0.2
57 | DLLN | ≤ 0.2
58 | KGMA | ≤ 0.2
59 | REAA | ≤ 0.2
60 | LPKT | ≤ 0.2
61 | MTYL | ≤ 0.2
62 | HVTS | ≤ 0.2
63 | TSRG | ≤ 0.2
64 | HHDW | ≤ 0.2
65 | TQRI | ≤ 0.2
66 | LHPI | ≤ 0.2
67 | VNPT | ≤ 0.2
68 | AYRC | ≤ 0.2
69 | HRCY | ≤ 0.2
70 | KKSK | ≤ 0.2
71 | LTTY | ≤ 0.2
72 | QGPL | ≤ 0.2

Row | Variant | one-hybrid fitness for binding NBS DNA
73 | CALG | ≤ 0.2
74 | VENY | ≤ 0.2
75 | QYQY | ≤ 0.2
76 | LIHS | ≤ 0.2
77 | FINV | ≤ 0.2
78 | SLVK | ≤ 0.2
79 | YPTE | ≤ 0.2
80 | TMTG | ≤ 0.2
81 | FHAF | ≤ 0.2
82 | PSWW | ≤ 0.2
83 | LLKG | ≤ 0.2
84 | QYAA | 0.237
85 | YYHT | ≤ 0.2
86 | EAVY | ≤ 0.2
87 | SRPT | ≤ 0.2
88 | CMYE | ≤ 0.2
89 | MNVL | ≤ 0.2
90 | PVIL | ≤ 0.2
91 | GFTG | ≤ 0.2
92 | IQSS | ≤ 0.2
93 | PLQM | ≤ 0.2
94 | HYLA | ≤ 0.2
95 | QGEE | ≤ 0.2
96 | CLWF | ≤ 0.2

Row | Variant | one-hybrid fitness for binding NBS DNA
97 | EVYT | ≤ 0.2
98 | AVRC | ≤ 0.2
99 | TRSS | ≤ 0.2
100 | LSMS | ≤ 0.2
101 | KQSL | ≤ 0.2
102 | RCIK | ≤ 0.2
103 | LVSS | ≤ 0.2
104 | PPSS | ≤ 0.2
105 | LKTY | ≤ 0.2
106 | EQWV | ≤ 0.2
107 | RWQP | ≤ 0.2
108 | YRYM | ≤ 0.2
109 | SLIW | ≤ 0.2
110 | VNSM | ≤ 0.2
111 | RMLA | ≤ 0.2
112 | SKTW | ≤ 0.2
113 | HKMG | ≤ 0.2
114 | WGDC | ≤ 0.2
115 | WLTS | ≤ 0.2
116 | TFPL | ≤ 0.2
117 | CVCS | ≤ 0.2
118 | AIDG | ≤ 0.2
119 | SIQE | ≤ 0.2
120 | QRKW | 0.411

Row | Variant | one-hybrid fitness for binding NBS DNA
121 | CQPC | ≤ 0.2
122 | TEIS | ≤ 0.2
123 | LTHN | ≤ 0.2
124 | TYPS | ≤ 0.2
125 | DLRN | ≤ 0.2
126 | QCLE | ≤ 0.2
127 | KGSR | ≤ 0.2
128 | TCIS | ≤ 0.2
129 | TGLW | ≤ 0.2
130 | WKHG | ≤ 0.2
131 | HSHR | ≤ 0.2
132 | PVMT | ≤ 0.2
133 | GERW | ≤ 0.2
134 | CVQE | ≤ 0.2
135 | DIRK | ≤ 0.2
136 | QAFE | ≤ 0.2
137 | VYAN | ≤ 0.2
138 | RHPM | ≤ 0.2
139 | HCGM | ≤ 0.2
140 | QLPK | ≤ 0.2
141 | ARAC | ≤ 0.2
142 | EACR | ≤ 0.2
143 | RTTI | ≤ 0.2
144 | DRNG | ≤ 0.2

Row | Variant | one-hybrid fitness for binding NBS DNA
145 | KYPQ | ≤ 0.2
146 | RMRK | 0.223
147 | NIRC | ≤ 0.2
148 | PMDT | ≤ 0.2
149 | TRLN | ≤ 0.2
150 | DDKH | ≤ 0.2
151 | QQWR | 0.514
152 | LCHG | ≤ 0.2
153 | QAIH | ≤ 0.2
154 | DCHV | ≤ 0.2
155 | CPDA | ≤ 0.2
156 | AWYY | ≤ 0.2
157 | TVFR | ≤ 0.2
158 | TFER | ≤ 0.2
159 | EGDS | ≤ 0.2
160 | PPCC | ≤ 0.2
161 | QEEF | ≤ 0.2
162 | CYHS | ≤ 0.2
163 | WRAP | ≤ 0.2
164 | PFPQ | ≤ 0.2
165 | CNMP | ≤ 0.2
166 | RLFF | ≤ 0.2
167 | LMKR | ≤ 0.2
168 | LQLS | ≤ 0.2

Row | Variant | one-hybrid fitness for binding NBS DNA
169 | LGIC | ≤ 0.2
170 | HSME | ≤ 0.2
171 | RNGT | ≤ 0.2
172 | PYPM | ≤ 0.2
173 | LLHE | ≤ 0.2
174 | RDPM | ≤ 0.2
175 | QGYE | ≤ 0.2
176 | PIMA | ≤ 0.2
177 | MSSC | ≤ 0.2
178 | QDCV | ≤ 0.2
179 | THHT | ≤ 0.2
180 | QETP | ≤ 0.2
181 | HLSM | ≤ 0.2
182 | EKQT | ≤ 0.2
183 | DYAS | ≤ 0.2
184 | DNYY | ≤ 0.2
185 | PHMV | ≤ 0.2
186 | GATT | ≤ 0.2
187 | MKYT | ≤ 0.2
188 | GWKG | ≤ 0.2
189 | YQRG | ≤ 0.2
190 | EYSG | ≤ 0.2
191 | TNQG | ≤ 0.2
192 | WPTQ | ≤ 0.2

Row | Variant | one-hybrid fitness for binding NBS DNA
193 | SVGC | ≤ 0.2
194 | MSIT | ≤ 0.2
195 | KIGS | ≤ 0.2
196 | VAND | ≤ 0.2
197 | VYMT | ≤ 0.2
198 | RDSD | ≤ 0.2
199 | NKDI | ≤ 0.2
200 | RACL | ≤ 0.2
201 | PTHK | ≤ 0.2
202 | IPTY | ≤ 0.2
203 | HARP | ≤ 0.2
204 | PNNL | ≤ 0.2
205 | HDSW | ≤ 0.2
206 | WATR | ≤ 0.2
207 | NALG | ≤ 0.2
208 | PGGP | ≤ 0.2
209 | IWKS | ≤ 0.2
210 | GRKS | ≤ 0.2
211 | TAET | ≤ 0.2
212 | VHNI | ≤ 0.2
213 | TSSH | ≤ 0.2
214 | ASPF | ≤ 0.2
215 | CTNE | ≤ 0.2
216 | YMYL | ≤ 0.2

Row | Variant | one-hybrid fitness for binding NBS DNA
217 | LMVK | ≤ 0.2
218 | QYKI | 0.289
219 | TPEE | ≤ 0.2
220 | QGAG | ≤ 0.2
221 | GYDC | ≤ 0.2
222 | QNLG | ≤ 0.2
223 | TFQI | ≤ 0.2
224 | TCKT | ≤ 0.2
225 | SLWN | ≤ 0.2
226 | RRIR | 0.686
227 | RNQW | ≤ 0.2
228 | LICF | ≤ 0.2
229 | CHHT | ≤ 0.2
230 | TIHI | ≤ 0.2
231 | MCLC | ≤ 0.2
232 | IKDG | ≤ 0.2
233 | GAKW | ≤ 0.2
234 | NSQR | ≤ 0.2
235 | KGRI | ≤ 0.2
236 | DGAY | ≤ 0.2
237 | GKDW | ≤ 0.2
238 | MFDR | ≤ 0.2
239 | ETWS | ≤ 0.2
240 | MVYH | ≤ 0.2

Row | Variant | one-hybrid fitness for binding NBS DNA
241 | IEPY | ≤ 0.2
242 | THYD | ≤ 0.2
243 | WGSG | ≤ 0.2
244 | VWMI | ≤ 0.2
245 | GYTM | ≤ 0.2
246 | YAWI | ≤ 0.2
247 | AATA | ≤ 0.2
248 | WYPG | ≤ 0.2
249 | PGRS | ≤ 0.2
250 | DAHY | ≤ 0.2
251 | TLHE | ≤ 0.2
252 | LNQQ | ≤ 0.2
253 | HYRS | ≤ 0.2
254 | PWPR | ≤ 0.2
255 | NYMG | ≤ 0.2
256 | SVKG | ≤ 0.2
257 | FGYC | ≤ 0.2
258 | VAVV | ≤ 0.2
259 | KSSH | ≤ 0.2
260 | QEAV | ≤ 0.2
261 | QLGP | ≤ 0.2
262 | KNGC | ≤ 0.2
263 | TRKW | ≤ 0.2
264 | RGMS | ≤ 0.2

Row | Variant | one-hybrid fitness for binding NBS DNA
265 | RMTI | ≤ 0.2
266 | FWPS | 0.222
267 | FASR | ≤ 0.2
268 | HHGA | ≤ 0.2
269 | PSAS | ≤ 0.2
270 | GWLR | 0.261
271 | HGSV | ≤ 0.2
272 | STSF | ≤ 0.2
273 | RFQL | ≤ 0.2
274 | TALM | ≤ 0.2
275 | TAQS | ≤ 0.2
276 | LKYR | ≤ 0.2
277 | TNCT | ≤ 0.2
278 | QHWN | ≤ 0.2
279 | VYSE | ≤ 0.2
280 | PMVD | ≤ 0.2
281 | RMGS | 0.461
282 | QGQA | ≤ 0.2
283 | SNQC | ≤ 0.2
284 | RHHG | ≤ 0.2
285 | TKPL | ≤ 0.2
286 | RYDA | ≤ 0.2
287 | HERM | ≤ 0.2
288 | TTFA | ≤ 0.2

Row | Variant | one-hybrid fitness for binding NBS DNA
289 | RHMQ | ≤ 0.2
290 | KDKW | ≤ 0.2
291 | FKTI | ≤ 0.2
292 | DREE | ≤ 0.2
293 | GIFG | ≤ 0.2
294 | STIS | ≤ 0.2
295 | FNSY | ≤ 0.2
296 | PAHA | ≤ 0.2
297 | RFIR | ≤ 0.2
298 | TLWT | ≤ 0.2
299 | PSPM | ≤ 0.2
300 | IGDC | ≤ 0.2
301 | SQRA | ≤ 0.2
302 | KVMK | ≤ 0.2
303 | SPDW | ≤ 0.2
304 | GTIT | ≤ 0.2
305 | MRSC | ≤ 0.2
306 | AGLP | ≤ 0.2
